No constants are given. Whether binding was seen depends on the method and setting. Binding seen in cells or lysates may run through a third protein. Some results given as binding are weak or reduced against the parent protein; the word gives no strength. Sequences can lack the tags named with a protein.
B1: IKKε-HA (enzyme, UniProt Q14164 1-716)
chain: MQSTANYLWHTDDLLGQGATASVYKARNKKSGELVAVKVFNTTSYLRPREVQVREFEVLRKLNHQNIVKLFAVEETGGSRQKVLVMEYCSSGSLLSVLESPENAFGLPEDEFLVVLRCVVAGMNHLRENGIVHRDIKPGNIMRLVGEEGQSIYKLTDFGAARELDDDEKFVSVYGTEEYLHPDMYERAVLRKPQQKAFGVTVDLWSIGVTLYHAATGSLPFIPFGGPRRNKEIMYRITTEKPAGAIAGAQRRENGPLEWSYTLPITCQLSLGLQSQLVPILANILEVEQAKCWGFDQFFAETSDILQRVVVHVFSLSQAVLHHIYIHAHNTIAIFQEAVHKQTSVAPRHQEYLFEGHLCVLEPSVSAQHIAHTTASSPLTLFSTAIPKGLAFRDPALDVPKFVPKVDLQADYNTAKGVLGAGYQALRLARALLDGQELMFRGLHWVMEVLQATCRRTLEVARTSLLYLSSSLGTERFSSVAGTPEIQELKAAAELRSRLRTLAEVLSRCSQNITETQESLSSLNRELVKSRDQVHEDRSIQQIQCCLDKMNFIYKQFKKSRMRPGLGYNEEQIHKLDKVNFSHLAKRLLQVFQEECVQKYQASLVTHGKRMRVVHETRNHLRLVGCSVAACNTEAQGVQESLSKLLEELSHQLLQDRAKGAQASPPPIAPYPSPTRKDLLLHMQELCEGMKLLASDLLDNNRIIERLNRVPAPPDV
B2: HA-tagged RIG-IN (residues 1 to 284) (domain or fragment, UniProt O95786 1-284)
chain: MTTEQRRSLQAFQDYIRKTLDPTYILSYMAPWFREEEVQYIQAEKNNKGPMEAATLFLKFLLELQEEGWFRGFLDALDHAGYSGLYEAIESWDFKKIEKLEEYRLLLKRLQPEFKTRIIPTDIISDLSECLINQECEEILQICSTKGMMAGAEKLVECLLRSDKENWPKTLKLALEKERNKFSELWIVEKGIKDVETEDLEDKMETSDIQIFYQEDPECQNLSENSCPPSEVSDTNLYSPFKPRNYQLELALPAMKGKNTIICAPTGCGKTFVSLLICEHHLKK
B3: HA-tagged TBK1 (enzyme, UniProt Q9UHD2 1-729)
chain: MQSTSNHLWLLSDILGQGATANVFRGRHKKTGDLFAIKVFNNISFLRPVDVQMREFEVLKKLNHKNIVKLFAIEEETTTRHKVLIMEFCPCGSLYTVLEEPSNAYGLPESEFLIVLRDVVGGMNHLRENGIVHRDIKPGNIMRVIGEDGQSVYKLTDFGAARELEDDEQFVSLYGTEEYLHPDMYERAVLRKDHQKKYGATVDLWSIGVTFYHAATGSLPFRPFEGPRRNKEVMYKIITGKPSGAISGVQKAENGPIDWSGDMPVSCSLSRGLQVLLTPVLANILEADQEKCWGFDQFFAETSDILHRMVIHVFSLQQMTAHKIYIHSYNTATIFHELVYKQTKIISSNQELIYEGRRLVLEPGRLAQHFPKTTEENPIFVVSREPLNTIGLIYEKISLPKVHPRYDLDGDASMAKAITGVVCYACRIASTLLLYQELMRKGIRWLIELIKDDYNETVHKKTEVVITLDFCIRNIEKTVKVYEKLMKINLEAAELGEISDIHTKLLRLSSSQGTIETSLQDIDSRLSPGGSLADAWAHQEGTHPKDRNVEKLQVLLNCMTEIYYQFKKDKAERRLAYNEEQIHKFDKQKLYYHATKAMTHFTDECVKKYEAFLNKSEEWIRKMLHLRKQLLSLTNQCFDIEEEVSKYQEYTNELQETLPQKMFTASSGIKHTMTPIYPSSNTLVEMTLGMKKLKEEMEGVVKELAENNHILERFGSLTMDGGLRNVDCL
B4: HA-tagged IRF3 (protein, UniProt Q14653 1-427)
chain: MGTPKPRILPWLVSQLDLGQLEGVAWVNKSRTRFRIPWKHGLRQDAQQEDFGIFQAWAEATGAYVPGRDKPDLPTWKRNFRSALNRKEGLRLAEDRSKDPHDPHKIYEFVNSGVGDFSQPDTSPDTNGGGSTSDTQEDILDELLGNMVLAPLPDPGPPSLAVAPEPCPQPLRSPSLDNPTPFPNLGPSENPLKRLLVPGEEWEFEVTAFYRGRQVFQQTISCPEGLRLVGSEVGDRTLPGWPVTLPDPGMSLTDRGVMSYVRHVLSCLGGGLALWRAGQWLWAQRLGHCHTYWAVSEELLPNSGHGPDGEVPKDKEGGVFDLGPFIVDLITFTEGSGRSPRYALWFCVGESWPQDQPWTKRLVMVKVVPTCLRALVEMARVGGASSLENTVDLHISNSHPLSLTSDQYKAYLQDLVEGMDFQGPGES

Protein sequences, listed by entry. Tags and fused reporters are not part of them.
UniProt Q7Z434: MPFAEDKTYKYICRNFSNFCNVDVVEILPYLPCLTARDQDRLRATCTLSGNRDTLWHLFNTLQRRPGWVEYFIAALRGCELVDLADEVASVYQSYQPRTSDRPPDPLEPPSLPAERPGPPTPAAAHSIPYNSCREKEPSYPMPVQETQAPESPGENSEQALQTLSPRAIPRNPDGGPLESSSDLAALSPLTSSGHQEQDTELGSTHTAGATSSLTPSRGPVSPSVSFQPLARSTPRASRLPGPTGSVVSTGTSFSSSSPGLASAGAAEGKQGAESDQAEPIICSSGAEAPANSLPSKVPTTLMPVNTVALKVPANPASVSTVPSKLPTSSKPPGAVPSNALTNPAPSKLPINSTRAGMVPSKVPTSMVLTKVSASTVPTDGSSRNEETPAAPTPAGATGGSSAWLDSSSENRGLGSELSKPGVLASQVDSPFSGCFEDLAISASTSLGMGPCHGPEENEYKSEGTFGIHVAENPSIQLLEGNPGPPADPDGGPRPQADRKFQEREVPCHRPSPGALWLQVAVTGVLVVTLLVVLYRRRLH

molecular target: DENV2 NS2B-Flag (Dengue virus 2, New Guinea C (NGC) strain) (UniProt P14340); assay: co-IP; HEK293T cells transiently transfected with NS2B-Flag and HA-tagged components for 24 h; lysates incubated with Flag antibody or control IgG and protein G-Sepharose beads for three hours; blots with antibodies against Flag or HA

| Molecule | binding |
| --- | --- |
| HA-tagged MAVS (from UniProt Q7Z434 1-540) | binds |
| B1 | binds |
| B2 | no binding |
| B3 | no binding |
| B4 | no binding |

From paper PMC10236164
